Test results reported in the supplement of paper PMC11876631.
± gives the standard deviation of the averaged measurements. Laboratory Escherichia coli strains with one amino-acid change in an essential protein, pooled on minimal glucose agar with carbenicillin or gentamicin at twice the control MIC (plus kanamycin and chloramphenicol for the plasmids), 48 h. Fold change of barcode share against drug-free plates; higher = less susceptible. Active = above 20 in both replicates (the paper's putatively resistant). '<' = one read or none on drug, '>' = one read or none on a drug-free plate. Shares are relative, so most strains fall below 1 when a few take over. Listed are strains with at least 15 reads on both drug-free plates, and hits; most hits rest on fewer reference reads. Replicate rank correlation about 0.5. Edits are read from barcodes.

B1: cysE L120D (protein)
chain: MSCEELEIVWNNIKAEARTLADCEPMLASFYHATLLKHENLGSALSYMLANKLSSPIMPAIAIREVVEEAYAADPEMIASAACDIQAVRTRDPAVDKYSTPLLYLKGFHALQAYRIGHWDWNQGRRALAIFLQNQVSVTFQVDIHPAAKIGRGIMLDHATGIVVGETAVIENDVSILQSVTLGGTGKSGGDRHPKIREGVMIGAGAKILGNIEVGRGAKIGAGSVVLQPVPPHTTAAGVPARIVGKPDSDKPSMDMDQHFNGINHTFEYGDGI
B2: cysE V88A (protein)
chain: MSCEELEIVWNNIKAEARTLADCEPMLASFYHATLLKHENLGSALSYMLANKLSSPIMPAIAIREVVEEAYAADPEMIASAACDIQAARTRDPAVDKYSTPLLYLKGFHALQAYRIGHWLWNQGRRALAIFLQNQVSVTFQVDIHPAAKIGRGIMLDHATGIVVGETAVIENDVSILQSVTLGGTGKSGGDRHPKIREGVMIGAGAKILGNIEVGRGAKIGAGSVVLQPVPPHTTAAGVPARIVGKPDSDKPSMDMDQHFNGINHTFEYGDGI
B3: cysE V88W (protein)
chain: MSCEELEIVWNNIKAEARTLADCEPMLASFYHATLLKHENLGSALSYMLANKLSSPIMPAIAIREVVEEAYAADPEMIASAACDIQAWRTRDPAVDKYSTPLLYLKGFHALQAYRIGHWLWNQGRRALAIFLQNQVSVTFQVDIHPAAKIGRGIMLDHATGIVVGETAVIENDVSILQSVTLGGTGKSGGDRHPKIREGVMIGAGAKILGNIEVGRGAKIGAGSVVLQPVPPHTTAAGVPARIVGKPDSDKPSMDMDQHFNGINHTFEYGDGI
B4: cysE V88Q (protein)
chain: MSCEELEIVWNNIKAEARTLADCEPMLASFYHATLLKHENLGSALSYMLANKLSSPIMPAIAIREVVEEAYAADPEMIASAACDIQAQRTRDPAVDKYSTPLLYLKGFHALQAYRIGHWLWNQGRRALAIFLQNQVSVTFQVDIHPAAKIGRGIMLDHATGIVVGETAVIENDVSILQSVTLGGTGKSGGDRHPKIREGVMIGAGAKILGNIEVGRGAKIGAGSVVLQPVPPHTTAAGVPARIVGKPDSDKPSMDMDQHFNGINHTFEYGDGI
B5: cysE V88D (protein)
chain: MSCEELEIVWNNIKAEARTLADCEPMLASFYHATLLKHENLGSALSYMLANKLSSPIMPAIAIREVVEEAYAADPEMIASAACDIQADRTRDPAVDKYSTPLLYLKGFHALQAYRIGHWLWNQGRRALAIFLQNQVSVTFQVDIHPAAKIGRGIMLDHATGIVVGETAVIENDVSILQSVTLGGTGKSGGDRHPKIREGVMIGAGAKILGNIEVGRGAKIGAGSVVLQPVPPHTTAAGVPARIVGKPDSDKPSMDMDQHFNGINHTFEYGDGI
B6: cysE I116A (protein)
chain: MSCEELEIVWNNIKAEARTLADCEPMLASFYHATLLKHENLGSALSYMLANKLSSPIMPAIAIREVVEEAYAADPEMIASAACDIQAVRTRDPAVDKYSTPLLYLKGFHALQAYRAGHWLWNQGRRALAIFLQNQVSVTFQVDIHPAAKIGRGIMLDHATGIVVGETAVIENDVSILQSVTLGGTGKSGGDRHPKIREGVMIGAGAKILGNIEVGRGAKIGAGSVVLQPVPPHTTAAGVPARIVGKPDSDKPSMDMDQHFNGINHTFEYGDGI
B7: cysG I441A (protein)
chain: MDHLPIFCQLRDRDCLIVGGGDVAERKARLLLDAGARLTVNALAFIPQFTAWADAGMLTLVEGPFDESLLDTCWLAIAATDDDALNQRVSEAAEARRIFCNVVDAPKAASFIMPSIIDRSPLMVAVSSGGTSPVLARLLREKLESLLPLHLGQVAKYAGQLRGRVKQQFATMGERRRFWEKLFVNDRLAQSLANNDQKAITETTEQLINEPLDHRGEVVLVGAGPGDAGLLTLKGLQQIQQADVVVYDRLVSDDIMNLVRRDADRVFVGKRAGYHCVPQEEINQILLREAQKGKRVVRLKGGDPFIFGRGGEELETLCNAGIPFSVVPGITAASGCSAYSGIPLTHRDYAQSVRLITGHLKTGGELDWENLAAEKQTLVFYMGLNQAATIQQKLIEHGMPGEMPVAIVENGTAVTQRVIDGTLTQLGELAQQMNSPSLIIAGRVVGLRDKLNWFSNH
B8: cysG I440A (protein)
chain: MDHLPIFCQLRDRDCLIVGGGDVAERKARLLLDAGARLTVNALAFIPQFTAWADAGMLTLVEGPFDESLLDTCWLAIAATDDDALNQRVSEAAEARRIFCNVVDAPKAASFIMPSIIDRSPLMVAVSSGGTSPVLARLLREKLESLLPLHLGQVAKYAGQLRGRVKQQFATMGERRRFWEKLFVNDRLAQSLANNDQKAITETTEQLINEPLDHRGEVVLVGAGPGDAGLLTLKGLQQIQQADVVVYDRLVSDDIMNLVRRDADRVFVGKRAGYHCVPQEEINQILLREAQKGKRVVRLKGGDPFIFGRGGEELETLCNAGIPFSVVPGITAASGCSAYSGIPLTHRDYAQSVRLITGHLKTGGELDWENLAAEKQTLVFYMGLNQAATIQQKLIEHGMPGEMPVAIVENGTAVTQRVIDGTLTQLGELAQQMNSPSLIAIGRVVGLRDKLNWFSNH

biological target: Escherichia coli (laboratory strain); assay: barcode share on antibiotic plates over drug-free plates; higher = less susceptible; conditions: antibiotic: carbenicillin; 2× MIC (3.1 µg/mL)
Experimental: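 A pool of E. coli strains, each edited to carry one amino-acid change in an essential protein, was grown for 48 h on minimal glucose agar with or without antibiotic; strain barcodes were sequenced; mean of two replicates.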

Protein	fold change of barcode share
B1	0.308 ± 0.26
B2	0.487 ± 0.41
B3	0.216 ± 0.17
B4	0.424 ± 0.085
B5	0.245 ± 0.033
B6	0.297 ± 0.045
B7	0.68 ± 0.22
B8	0.671 ± 0.13

same assay, conditions: antibiotic: gentamicin; 2× MIC (MIC 0.45 µg/mL)

Protein	fold change of barcode share
B1	0.0261 ± 0.027
B2	< 0.00601
B3	0.0194 ± 0.01
B4	0.0112 ± 0.0044
B5	< 0.0105
B7	< 0.00449
B8	0.129 ± 0.16
